Test results as given in the supplement of paper PMC9446081.
Out of some 39,000 compounds screened, about 220 (0.56%) showed activity. Some of the results follow.

These compounds were tested on Escherichia coli K-12 BW25113 (assay: relative growth (OD600 normalised to plate interquartile mean) (fraction); higher = less growth inhibition, active = 0.2 or less). Details: 50 µM; LB; incubation time: overnight (16-24 h).
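Further: static incubation at 37 °C against the wild-type strain, values averaged over two biological replicates.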

SMILES | relative growth
c1cncc(-c2nc3ccc4ccccc4c3c3c2CCCC3)c1 | inactive: 1.03
Cc1ccc(C(=O)N(CC(N)=O)CC(N)=O)cc1 | inactive: 1.01
CC(C)NC(=O)Nc1ccc2c(c1)C(=O)N([C@H](C)CO)C[C@H](C)[C@@H](CN(C)C(=O)Nc1ccccc1)OCCCC[C@H](C)O2 | inactive: 0.983
C[C@H](CO)N1C[C@H](C)[C@H](CN(C)Cc2ccc(Cl)c(Cl)c2)Oc2ccc(NC(=O)Cc3ccccc3)cc2C1=O | inactive: 0.996
Cc1ccc(S(=O)(=O)Oc2ccc(/N=N/c3ccc(-c4ccc(/N=N/c5c(O)ccc6cc(S(=O)(=O)O)cc(S(=O)(=O)O)c56)c(C)c4)cc3C)cc2)cc1 | inactive: 0.992
O=C(C[C@@H]1CC[C@H]2[C@@H](COC[C@@H](O)CN2C(=O)c2ccc3c(c2)OCO3)O1)NCCN1CCCCC1 | inactive: 0.993
COc1ccc(S(=O)(=O)N(C)C[C@@H]2OCCCC[C@@H](C)Oc3ccc(NS(=O)(=O)c4cn(C)cn4)cc3C(=O)N([C@H](C)CO)C[C@H]2C)cc1 | inactive: 0.99
C[C@H]1CN([C@@H](C)CO)C(=O)c2cc(NC(=O)CCCN(C)C)ccc2O[C@H]1CN(C)C(=O)Nc1ccc2c(c1)OCO2 | inactive: 0.986
C[C@H](CO)N1C[C@H](C)[C@H](CN(C)S(=O)(=O)c2cccs2)Oc2ccc(NC(=O)C3CC3)cc2C1=O | inactive: 0.987
C[C@@H]1CN([C@H](C)CO)C(=O)c2cc(-c3ccncc3)cnc2O[C@H]1CN(C)C(=O)Nc1ccc2c(c1)OCO2 | inactive: 0.972
C[C@H](CO)N1C[C@H](C)[C@H](CN(C)C(=O)Nc2ccc3c(c2)OCO3)Oc2ccc(NC(=O)C3CC3)cc2CC1=O | inactive: 0.989
COc1ccc(S(=O)(=O)N(C)C[C@@H]2Oc3ccc(NC(=O)Nc4ccc(Cl)c(Cl)c4)cc3CC(=O)N([C@@H](C)CO)C[C@@H]2C)cc1Cl | inactive: 1.03
CC(C)=CCC/C(C)=C/C=C/C(C)=C/C=C/C(C)=C/C=C/C=C(C)/C=C/C=C(C)/C=C/C=C(\C)CCC=C(C)C | inactive: 0.966
Cc1c(C)c2ccc(O[C@@H]3O[C@H](CO)[C@H](O)[C@H](O)[C@H]3O)cc2oc1=O | inactive: 1.01
C[C@H](CO)N1C[C@H](C)[C@@H](CN(C)C(=O)Nc2ccc3c(c2)OCO3)Oc2c(NC(=O)c3ccc(-c4nccs4)cc3)cccc2C1=O | inactive: 1.01
COc1ccccc1S(=O)(=O)N[C@H]1CC[C@H](CCNC(=O)C2CCOCC2)O[C@H]1CO | inactive: 1.01
COc1ccc(S(=O)(=O)Nc2cccc3c2O[C@@H](CN(C)Cc2ccncc2)[C@H](C)CN([C@H](C)CO)C3=O)cc1 | inactive: 0.95
Cc1cc(C)n(-c2ccc(=O)n(CC(=O)N3CCN(S(=O)(=O)c4ccc(F)cc4)CC3)n2)n1 | inactive: 1.01
COc1ccccc1S(=O)(=O)N[C@H]1CC[C@H](CCNC(=O)C2CC2)O[C@H]1CO | inactive: 1
O=C(NCCN1CCOCC1)[C@]1(Cc2ccccc2)N=C(c2ccc(OCCCO)cc2)O[C@@H]1c1ccccc1 | inactive: 1.01
C[N+](C)(C)CCCC[C@@H]1NC(=O)[C@H]2C[C@@H](C(=O)NCCCCCNC(=O)CS)[C@@H](c3cccc(OCCO)c3)N2C1=O | inactive: 1.01

SMILES | relative growth
COc1ccc([Si](C)(C)[C@@H]2[C@@H](CC(=O)N(CCO)Cc3ccccc3)O[C@]3(C(=O)N(Cc4cccc(N5CCCCC5=O)c4)c4ccccc43)[C@H]2C)cc1 | inactive: 1.02
C[C@@H]1CN([C@@H](C)CO)C(=O)c2cc(NS(=O)(=O)c3cn(C)cn3)ccc2O[C@H]1CN(C)S(C)(=O)=O | inactive: 1.02
C[C@@H]1CN([C@@H](C)CO)C(=O)c2cc(-c3cncnc3)cnc2O[C@@H]1CN(C)C(=O)CN1CCOCC1 | inactive: 0.995
C[C@H]1CN([C@@H](C)CO)S(=O)(=O)c2ccc(C#Cc3ccncc3)cc2O[C@H]1CN(C)C(=O)C1CCC1 | inactive: 0.986
O=C(O)C1(c2ccccc2)CCCC1 | inactive: 1
CN(C)CC(=O)N[C@H]1CC[C@H](CCNC(=O)C2CC2)O[C@H]1CO | inactive: 0.99
C[C@@H]1CN([C@@H](C)CO)C(=O)c2cc(C#CC3(O)CCCC3)cnc2O[C@H]1CN(C)C(=O)Cc1cccnc1 | inactive: 0.975
C[C@H](O)C#Cc1cnc2c(c1)C(=O)N([C@@H](C)CO)C[C@@H](C)[C@H](CN(C)C(=O)CN1CCOCC1)O2 | inactive: 0.97
Cc1noc(C)c1NC(=O)Nc1cccc2c1O[C@H](CN(C)C(=O)Nc1ccc(C(F)(F)F)cc1)[C@@H](C)CN([C@@H](C)CO)C2=O | inactive: 0.944
C[C@@H]1CN([C@H](C)CO)C(=O)c2cc(NC(=O)CCCCCC(=O)Nc3ccccc3N)ccc2O[C@H]1CN(C)Cc1ccc(-c2ccccc2)cc1 | inactive: 1.03
COc1ccc(NC(=O)Nc2cccc3c2O[C@H](CN(C)S(=O)(=O)c2cn(C)cn2)[C@H](C)CN([C@H](C)CO)C3=O)cc1 | inactive: 1
C[C@H](CO)N1C[C@H](C)[C@@H](CN(C)C(=O)C2CCOCC2)Oc2ncc(-c3cccc(C#N)c3)cc2C1=O | inactive: 1.02
CCCCC1=NC2(CCCC2)C(=O)N1Cc1ccc(-c2ccccc2-c2nnn[nH]2)cc1 | inactive: 1.04
CC(C)NCC(O)c1ccc(NS(C)(=O)=O)cc1.Cl (stereo not drawn) | inactive: 0.927
CC(C)COC(=O)OCN1C(=O)CN(CCN2CC(=O)N(COC(=O)OCC(C)C)C(=O)C2)CC1=O | inactive: 0.985
C[C@@H]1CN([C@H](C)CO)C(=O)c2cc(NC(=O)c3ccccc3)ccc2O[C@@H](C)CCCCO[C@H]1CN(C)Cc1ccccc1 | inactive: 1
CCCC#Cc1ccc2c(c1)O[C@@H](CN(C)S(=O)(=O)c1cccc(F)c1)[C@@H](C)CN([C@@H](C)CO)S2(=O)=O | inactive: 0.995
C[C@H]1CN([C@@H](C)CO)C(=O)Cc2cc(NC(=O)c3ccncc3)ccc2O[C@H]1CN(C)Cc1ccncc1 | inactive: 0.993
Cc1noc(C)c1NC(=O)Nc1ccc2c(c1)C(=O)N([C@@H](C)CO)C[C@@H](C)[C@H](CN(C)Cc1ccc(C(F)(F)F)cc1)OCCCC[C@@H](C)O2 | inactive: 1.02
C[C@@H]1CCCCO[C@H](CN(C)Cc2ccc3c(c2)OCO3)[C@@H](C)CN([C@@H](C)CO)C(=O)c2cc(NC(=O)Nc3ccccc3)ccc2O1 | inactive: 0.99
O=C(C[C@H]1CC[C@@H]2[C@H](COC[C@H](O)CN2C(=O)c2ccc3c(c2)OCO3)O1)NC1Cc2ccccc2C1 | inactive: 0.962

SMILES | relative growth
NC(=O)Cc1cccc(C(=O)c2ccccc2)c1N | inactive: 1.08
O=C(C[C@@H]1CC[C@H]2[C@@H](COC[C@@H](O)CN2C(=O)c2cnccn2)O1)N1CCN(c2ccccc2)CC1 | inactive: 1
Cc1ccc(-c2ccc3c(c2)O[C@@H](CN(C)C(=O)CN(C)C)[C@H](C)CN([C@H](C)CO)S3(=O)=O)cc1 | inactive: 0.992
C=CC1=C(C(=O)O)N2C(=O)C(NC(=O)C(=NOCC(=O)O)c3csc(N)n3)C2SC1 (stereo not drawn) | inactive: 1.01
Nc1ncnc2c1ncn2[C@@H]1O[C@H](CO)C[C@H]1O | inactive: 1
CNC(=O)c1ccc(OC(C)=O)cc1 | inactive: 1.01
Cc1ccc(S(=O)(=O)Nc2ccc3c(c2)CC(=O)N([C@H](C)CO)C[C@H](C)[C@@H](CN(C)Cc2ccc(-c4ccccc4)cc2)O3)cc1 | inactive: 1.02
COc1cccc2c1C(=O)c1c(O)c3c(c(O)c1C2=O)C[C@@](O)(C(=O)CO)C[C@@H]3O[C@H]1C[C@H](N)[C@H](O)[C@H](C)O1 | inactive: 0.93
CCCNC(=O)N1C[C@H](C)[C@H](OC)CN(C)C(=O)c2cc(NS(=O)(=O)CC(F)(F)F)ccc2OC[C@@H]1C | inactive: 0.966
Cc1ccc(S(=O)(=O)N2C[C@H](O)COC[C@H]3O[C@H](CC(=O)N[C@H]4CCN(Cc5ccccc5)C4)CC[C@@H]32)cc1 | inactive: 1.01
COc1ccc(S(=O)(=O)N(C)C[C@@H]2OCCCC[C@@H](C)Oc3ccc(NS(C)(=O)=O)cc3C(=O)N([C@H](C)CO)C[C@@H]2C)cc1 | inactive: 0.999
COc1ccc(S(=O)(=O)N(C)C[C@H]2Oc3ccc(NS(=O)(=O)c4ccc(F)cc4)cc3CC(=O)N([C@@H](C)CO)C[C@H]2C)cc1 | inactive: 1.06
CC(C)CNC(=O)C(=O)NCc1ccccn1 | inactive: 0.947
C[C@@H]1CN([C@H](C)CO)C(=O)CCCn2nncc2CO[C@@H]1CN(C)C(=O)CCCN(C)C | inactive: 0.987
O=C(CN1CCOCC1)N[C@@H]1CC[C@H](CCNC(=O)C2CCCCC2)O[C@@H]1CO | inactive: 0.994
C=CCN(C(=O)[C@H]1N(c2ccc(CCO)cc2)C(=O)[C@H]2[C@H](C(=O)O)[C@@H]3C=C[C@@]21O3)c1ccc(OC)cc1 | inactive: 1.04
C[C@H](CO)N1C[C@H](C)[C@H](CN(C)Cc2ccc(Cl)c(Cl)c2)Oc2ccc(NS(=O)(=O)c3ccc(F)cc3)cc2CC1=O | inactive: 0.989
CC(C)NC(=O)Nc1ccc2c(c1)C(=O)N([C@H](C)CO)C[C@@H](C)[C@@H](CN(C)Cc1ccc(C(=O)O)cc1)O2 | inactive: 1.01
Cc1noc(C)c1S(=O)(=O)N(C)C[C@H]1Oc2ccc(NS(C)(=O)=O)cc2C(=O)N([C@H](C)CO)C[C@H]1C | inactive: 0.977
CC(=O)NC(CS)C(=O)O (stereo not drawn) | inactive: 1.09
COc1ccc(CN(C)C[C@H]2OCCCC[C@@H](C)Oc3ccc(NC(=O)Nc4ccccc4)cc3C(=O)N([C@@H](C)CO)C[C@@H]2C)cc1 | inactive: 1.02
